Over roughly 33,000 sequences, “E-score (-0.5 to 0.5)” has its median near -0.016; the highest 2% begin near 0.31. The list shows a part of the results.
The sequences below were run against Cst6 (UniProt P40535) (assay: PBM E-score (8-mer binding enrichment) (E-score (-0.5 to 0.5)); higher = stronger / more preferred TF binding; most listed sequences are background and not binding sites). Conditions: protein concentration: 200 nM; construct: GST-DNA-binding domain.
Outline: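 GST-tagged yeast TFs (full-length or DNA-binding domain) were made by PURExpress in vitro transcription/translation and applied at about 100-200 nM to universal all-10-mer Agilent arrays. The arrays were made double-stranded by primer extension, on fresh or once-stripped slides. Bound protein was detected with fluorescent anti-GST, and scans were normalised with masliner. Each ungapped eight-base word, pooled with its reverse complement, received an E-score (modified Wilcoxon-Mann-Whitney statistic) from the Universal PBM Analysis Suite.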

| Sequence | PBM E-score |
| --- | --- |
| ATGGTGGC | -0.249 |
| GGAACGGA | -0.1 |
| AAAAGTGA | 0.306 |
| GAGTCATA | 0.144 |
| ATATTTAC | 0.175 |
| CCGAGCTA | -0.0807 |
| CACGAGGA | -0.0299 |
| CATGCAAG | -0.111 |
| AGATGAGC | -0.0176 |
| TATGTAGA | -0.0113 |
| AGGCAAGG | -0.142 |
| CGGCAGGC | -0.203 |
| ACATATAC | 0.0718 |
| ACTGGGAT | -0.00304 |
| ATGGACGG | -0.00168 |
| CGTACGAC | 0.122 |
| CAGATCAC | 0.00632 |
| GGAGTCGA | -0.12 |
| CGTAATTA | 0.362 |
| CGATGGAG | -0.0922 |
| GTGATTCA | 0.109 |
| CGGCGGGC | -0.123 |
| GGTAGTTA | 0.0686 |
| ACGCTGGG | -0.278 |
| CCGCTGCC | -0.15 |

| Sequence | PBM E-score |
| --- | --- |
| CAAATACC | -0.0912 |
| ATGCGAGA | 0.00294 |
| ACGACGCC | -0.0481 |
| CATCAAAG | 0.0154 |
| AAACCTTA | 0.166 |
| AAACTATA | 0.0675 |
| ACTACGTG | -0.0819 |
| CAGTCCGC | -0.0766 |
| CACCGTGG | -0.208 |
| AGCTAAAG | -0.0194 |
| GGCTGCGA | -0.142 |
| TAGGATCA | -0.0491 |
| AACGCGAG | -0.0274 |
| GACACTTA | 0.072 |
| GCTGCAGA | -0.104 |
| ATGTCAAA | 0.237 |
| AAACACTT | 0.0247 |
| GCCCCGGA | -0.247 |
| GCAACCCA | -0.0438 |
| ACACGCAA | 0.131 |
| GGCGCACC | -0.162 |
| CCAAACCA | -0.12 |
| AGACGTAT | 0.144 |
| AGTGATCA | 0.0655 |
| GTTATTAA | 0.149 |

| Sequence | PBM E-score |
| --- | --- |
| AACTGCAG | -0.112 |
| ATAAAGGC | 0.00148 |
| ACCCGTAC | -0.0234 |
| AGAACTCA | -0.0679 |
| CGGGTCTA | -0.0428 |
| AGTAGTGG | 0.0114 |
| ACTGACCC | -0.208 |
| AGGCGGGC | -0.176 |
| ACATGTCA | 0.275 |
| AATTAGAA | 0.115 |
| CTAGTCCA | -0.164 |
| CCCGACCG | -0.311 |
| GAATCGGA | 0.0567 |
| GGCAACGA | 0.0637 |
| ACGATACG | -0.00234 |
| CGGTCTCC | -0.371 |
| CGAAGGGA | -0.122 |
| CAAAGTGA | 0.0189 |
| CAACCCCA | 0.045 |
| CAGACACC | -0.149 |
| AGTTTGAT | 0.0532 |
| ATGTTCCC | -0.203 |
| AACTGCAA | -0.0232 |
| CTACGAAA | 0.133 |
| CATAAAGA | 0.236 |

| Sequence | PBM E-score |
| --- | --- |
| AGCACCAC | -0.28 |
| TCAGTACA | -0.0324 |
| GCCGTGCC | 0.308 |
| AATACCGT | 0.213 |
| CTCTGACA | 0.0147 |
| CCGCGGAA | 0.0664 |
| CCCGGACC | -0.291 |
| CACCGTGC | 0.202 |
| CTTGAAGC | 0.00152 |
| GAACTCAC | -0.026 |
| ATAGGCGC | 0.0559 |
| AGGAAAGC | -0.215 |
| ACTAAAGT | 0.038 |
| CGACAATC | -0.101 |
| CCCCGTCA | -0.0515 |
| ACCCCTAG | -0.21 |
| ACGTATAA | 0.309 |
| ATTCCAGC | -0.121 |
| AGTCTTCC | -0.232 |
| CGGATGCA | -0.223 |
| GGTGAGAC | -0.129 |
| GAATTTGC | 0.0122 |
| GCACTGAC | 0.0294 |
| GAGGACCA | -0.235 |
| GGCTATGA | 0.0687 |

| Sequence | PBM E-score |
| --- | --- |
| TATTTGGA | 0.19 |
| CATAGGAA | 0.0448 |
| CCCAGACA | -0.219 |
| CCACGAGA | -0.235 |
| AGTCCTCC | -0.35 |
| ACACCAGT | -0.0654 |
| AGAACCCA | -0.156 |
| GCCCTGGA | -0.278 |
| CCCGATGC | -0.304 |
| ACACAAAC | 0.204 |
| AAATGGGG | -0.119 |
| CCACGTTA | 0.138 |
| ATAGGACA | -0.159 |
| ACTATCCA | -0.164 |
| CTAGAGTA | 0.0702 |
| ATCAATAG | 0.191 |
| CTCCCTCA | -0.195 |
| AACCCTTC | 0.0402 |
| AATTCGTC | 0.316 |
| ATGGACCA | 0.0101 |
| AATCTAAT | 0.21 |
| CGGCGGAA | -0.0135 |
| GTGTGTTA | 0.197 |
| ATCCGTGC | 0.256 |
| CGCGCAAC | -0.112 |

| Sequence | PBM E-score |
| --- | --- |
| CATGCTCG | -0.0524 |
| CAAAGGGC | -0.0204 |
| ATGGGACG | -0.118 |
| AAATGGCA | 0.138 |
| GTAGTATA | 0.0544 |
| AAGGCTTA | -0.0227 |
| AGGCGCCG | 0.325 |
| AGTGTTAC | 0.128 |
| ACCGCATG | 0.13 |
| ACGCTTGA | 0.132 |
| CCGCAGCA | 0.0617 |
| ATTACCTG | 0.14 |
| CTTTTAAA | 0.197 |
| AAGGCCGT | 0.0353 |
| ATCGGAGC | -0.214 |
| ATAAGGGA | 0.0975 |
| AACGTAAT | 0.453 |
| AGGCTCGC | -0.224 |
| CGAAGGAA | -0.0308 |
| ATTCTAAA | 0.188 |
| CCAGCCGC | -0.209 |
| CCATTGAC | 0.0303 |
| AGATTAAA | 0.211 |
| TCCGTTCA | -0.0662 |
| AGAGTACG | -0.0348 |

| Sequence | PBM E-score |
| --- | --- |
| GAGGGACA | -0.22 |
| ATGTTAAT | 0.114 |
| GCCGTTGA | 0.126 |
| GCTTATGA | 0.058 |
| GTTGTACA | 0.171 |
| GGCCATGA | 0.00515 |
| AGACATCA | 0.0931 |
| CAGGGTTA | -0.124 |
| ACTGTCAC | 0.141 |
| AGGTGTTA | 0.00729 |
| CGACGTCC | -0.0701 |
| ACAATAAA | 0.108 |
| CCCGTTAA | -0.196 |
| GCTCGAGA | -0.13 |
| ACGACGCT | -0.205 |
| ATAGCTAC | -0.00283 |
| AACATTGG | -0.183 |
| AAACAACA | 0.128 |
| CGATTATC | -0.132 |
| ACGCCACC | -0.128 |
| ATAATTTG | 0.195 |
| TCTGAAGA | -0.249 |
